# Measurements taken from the supplement of paper PMC9938546.
# Counter-ions that a name gives are not always drawn. The list shows a part of the results. Repeats are few or missing, and single values can be far off.
# Test system: HCT116-GFP
# Experiment: HCT116-GFP viability (GFP intensity) relative to untreated control, monoculture; higher = less cancer cell killing
# Details: culture: HCT116-GFP monoculture; 10 µM; 72 h
# 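Further: viability estimated indirectly by image-based GFP quantification with live-cell imaging of the constitutively GFP-expressing human colorectal cancer line, no immune cells added.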
row,SMILES,HCT116-GFP viability [%]
1,CCCCNc1cc(C(=O)O)cc(S(N)(=O)=O)c1Oc1ccccc1 [Bumetanide],112
2,CNC(=O)c1c(I)c(C(=O)NCC(=O)Nc2c(I)c(C(=O)O)c(I)c(C(=O)NCCO)c2I)c(I)c(N(C)C(C)=O)c1I [Ioxaglic acid],87.8
3,CC(=O)Oc1ccccc1C(=O)Oc1ccccc1C(=O)O [Acetylsalicylsalicylic acid],98
4,CCN(CC)CCOC(=O)c1ccc(N)cc1 [Procaine hydrochloride],99.2
5,Cc1c(C)c2c(c(C)c1O)CCC(C)(C(=O)O)O2 (stereo unspecified) [Trolox],119
6,CC[C@H](C)C(=O)O[C@H]1C[C@@H](C)C=C2C=C[C@H](C)[C@H](CC[C@@H]3C[C@@H](O)CC(=O)O3)[C@H]21 [Lovastatin],95.3
7,CC(=O)N[C@@H](CS)C(=O)O [Acetylcysteine],84.9
8,CC(=O)O[C@H]1C[C@@]2(C)[C@@H](C[C@@H](O)[C@H]3[C@@]4(C)CC[C@@H](O)[C@@H](C)[C@@H]4CC[C@@]32C)/C1=C(\CCC=C(C)C)C(=O)O [Fusidic acid sodium salt],92.3
9,CN(C)CCn1nnnc1SCC1=C(C(=O)O)N2C(=O)[C@@H](NC(=O)Cc3csc(N)n3)[C@H]2SC1 [Cefotiam hydrochloride],94.5
10,C[C@@H]1C[C@H]2[C@@H]3C[C@H](F)C4=CC(=O)C=C[C@]4(C)[C@@]3(Cl)[C@@H](O)C[C@]2(C)[C@H]1C(=O)COC(=O)C(C)(C)C [Clocortolone pivalate],85.3
11,OC(c1cc(C(F)(F)F)nc2c(C(F)(F)F)cccc12)C1CCCCN1 (stereo unspecified) [Mefloquine hydrochloride],17.5
12,CNCCCC12CCC(c3ccccc31)c1ccccc12 [Maprotiline hydrochloride],80
13,CC1(C)O[C@@H]2C[C@H]3[C@@H]4CCC5=CC(=O)CC[C@]5(C)[C@@]4(F)[C@@H](O)C[C@]3(C)[C@]2(C(=O)CCl)O1 [Halcinonide],121
14,C[C@]12C=CC(=O)C=C1CC[C@H]1[C@@H]3C[C@@H](O)[C@](O)(C(=O)CO)[C@@]3(C)C[C@H](O)[C@@]12F [Triamcinolone],123
15,CCN(CC)C(=O)/C(C#N)=C/c1cc(O)c(O)c([N+](=O)[O-])c1 [Entacapone],105
16,C[C@@H](O)[C@H]1C(=O)N2C(C(=O)O)=C(S[C@@H]3CN[C@H](C(=O)N(C)C)C3)[C@H](C)[C@H]12 [Meropenem],106
17,CC(=O)O[C@H]1C[C@@H]2CC[C@@H]3[C@H](CC[C@@]4(C)[C@H]3C[C@H]([N+]3(C)CCCCC3)[C@@H]4OC(C)=O)[C@@]2(C)C[C@@H]1N1CCCCC1 [Vecuronium bromide],96.7
18,CC(C)NC[C@H](O)COc1cccc2ccccc12 [(S)-propranolol hydrochloride],118
19,CN(C/C=C/c1ccccc1)Cc1cccc2ccccc12 [Naftifine hydrochloride],84.8
20,CN1C(=O)OC(C)(C)C1=O [Trimethadione],100
21,CC(=O)CCCCn1c(=O)c2c(ncn2C)n(C)c1=O [Pentoxifylline],88.6
22,OCCN1CCN(CCCN2c3ccccc3C=Cc3ccccc32)CC1 [Opipramol dihydrochloride],98.1
23,Cc1onc(-c2c(F)cccc2Cl)c1C(=O)N[C@@H]1C(=O)N2[C@@H]1SC(C)(C)[C@@H]2C(=O)O [Flucloxacillin sodium],110
24,C[C@H](Cc1cc2c(c(C(N)=O)c1)N(CCCO)CC2)NCCOc1ccccc1OCC(F)(F)F [Silodosin],92.1

row,SMILES,HCT116-GFP viability [%]
1,CN(C)CCCSC(=N)N [Dimaprit dihydrochloride],97.5
2,O=C(NCCN1CCOCC1)c1ccc(Cl)cc1 [Moclobemide],95.6
3,CCCCCNC(=N)N/N=C/c1c[nH]c2ccc(OC)cc12 [Tegaserod maleate],0.346
4,NS(=O)(=O)c1cc(Cl)c(Cl)c(S(N)(=O)=O)c1 [Dichlorphenamide],123
5,CCN1CCCC(OC(=O)C(c2ccccc2)c2ccccc2)C1 (stereo unspecified) [Piperidolate hydrochloride],110
6,O=C(O)c1ccccc1OP(=O)(O)O [Fosfosal],89.3
7,C/C=C(/C(=C/C)c1ccc(O)cc1)c1ccc(O)cc1 [Dienestrol],103
8,Cc1ncc([N+](=O)[O-])n1CC(C)O (stereo unspecified) [Secnidazole],98.7
9,COc1ccc2cc([C@H](C)C(=O)O)ccc2c1 [Naproxen],92.3
10,Nc1cc(N2CCCCC2)nc(N)[n+]1[O-] [Minoxidil],94.2
11,CC1(C)S[C@@H]2[C@H](NC(=O)[C@H](N)c3ccccc3)C(=O)N2[C@H]1C(=O)O [Ampicillin trihydrate],103
12,O=c1n(CCCN2CCN(c3cccc(Cl)c3)CC2)nc2ccccn12 [Trazodone hydrochloride],92
13,NC(=O)c1cnccn1 [Pyrazinamide],102
14,Cc1nc2ccccn2c(=O)c1CCN1CCC(C(=O)c2ccc(F)cc2)CC1 [Pirenperone],106
15,CSc1nc2cc(Cl)c(Oc3cccc(Cl)c3Cl)cc2[nH]1 [Triclabendazole],88.1
16,O=C(CCNNC(=O)c1ccncc1)NCc1ccccc1 [Nialamide],98.3
17,N/C(=N\C(=O)c1nc(Cl)c(N)nc1N)NCc1ccccc1 [Benzamil hydrochloride],88.8
18,CCCN(CCC)CCc1cccc2c1CC(=O)N2 [Ropinirole hydrochloride],95.2
19,COc1cccc2c1C(=O)c1c(O)c3c(c(O)c1C2=O)C[C@@](O)(C(=O)CO)C[C@@H]3O[C@H]1C[C@H](N)[C@@H](O)[C@H](C)O1 [Epirubicin hydrochloride],5.52
20,CC(=O)O[C@H]1C(=O)[C@@]2(C)[C@H]([C@H](OC(=O)c3ccccc3)[C@]3(O)C[C@H](OC(=O)[C@H](O)[C@@H](NC(=O)c4ccccc4)c4ccccc4)C(C)=C1C3(C)C)[C@]1(OC(C)=O)CO[C@@H]1C[C@@H]2O [Paclitaxel],21.3
21,CC(N)CCCC(C)(C)O (stereo unspecified) [Heptaminol hydrochloride],113
22,CN1CCCN=C1/C=C/c1cccc(O)c1 [Oxantel pamoate],98.5
23,C[C@@H](O[C@H]1OCCN(Cc2n[nH]c(=O)[nH]2)[C@H]1c1ccc(F)cc1)c1cc(C(F)(F)F)cc(C(F)(F)F)c1 [Aprepitant],63.6
24,CC=CC1=C(C(=O)O)N2C(=O)[C@@H](NC(=O)[C@H](N)c3ccc(O)cc3)[C@H]2SC1 [Cefprozil],106

row,SMILES,HCT116-GFP viability [%]
1,Cc1cc2c(s1)Nc1ccccc1N=C2N1CCN(C)CC1 [Olanzapine],97.1
2,CC(C)OC(=O)C(C)(C)Oc1ccc(C(=O)c2ccc(Cl)cc2)cc1 [Fenofibrate],85
3,"Cc1c(O)c(=O)n(-c2ccccc2)n1C [Antipyrine, 4-hydroxy]",103
4,Nc1ncnc2c1ncn2C1OC(COP(=O)(O)O)C(O)C1O (stereo unspecified) [Adenosine 5'-monophosphate monohydrate],98.4
5,CCOc1ccc2nc(S(N)(=O)=O)sc2c1 [Ethoxzolamide],90.3
6,C[C@@H]1C[C@H]2[C@@H]3CCC4=CC(=O)C=C[C@]4(C)[C@@]3(Cl)[C@@H](O)C[C@]2(C)[C@@]1(OC(=O)c1ccco1)C(=O)CCl [Mometasone furoate],63.8
7,CN1CCCN(C(c2ccccc2)c2ccc(Cl)cc2)CC1 (stereo unspecified) [Homochlorcyclizine dihydrochloride],93.4
8,CCCCc1ccc2[nH]c(NC(=O)OC)nc2c1 [Parbendazole],9.91
9,C/C(=C\C(=O)OCCCCCCCCC(=O)O)C[C@@H]1OC[C@H](C[C@@H]2O[C@H]2[C@@H](C)[C@H](C)O)[C@@H](O)[C@H]1O [Mupirocin],110
10,CN/C(=N\CCSCc1nc[nH]c1C)NC#N [Cimetidine],102
11,CCc1cccc(CC)c1NC(=O)CN(CC(=O)O)CC(=O)O [Etifenin],105
12,O=C(O)c1cc(/N=N/c2ccc(S(=O)(=O)Nc3ccccn3)cc2)ccc1O [Sulfasalazine],96.7
13,CN1CCN(C(c2ccccc2)c2ccccc2)CC1 [Cyclizine hydrochloride],102
14,OCCN(CCO)c1nc(N2CCCCC2)c2nc(N(CCO)CCO)nc(N3CCCCC3)c2n1 [Dipyridamole],79.7
15,O=C(O)c1ccccc1C(=O)Nc1ccc(S(=O)(=O)Nc2nccs2)cc1 [Phthalylsulfathiazole],94.8
16,CN(c1nccc(=O)[nH]1)C1CCN(c2nc3ccccc3n2Cc2ccc(F)cc2)CC1 [Mizolastine],96.3
17,NC[C@@H]1O[C@@H](O[C@H]2[C@H](O)[C@@H](O[C@H]3O[C@H](CO)[C@@H](O)[C@H](N)[C@H]3O)[C@H](N)C[C@@H]2N)[C@@H](O)[C@H](O)[C@H]1O [Kanamycin A sulfate],94.7
18,CC1CC(OC(=O)c2ccccc2O)CC(C)(C)C1 (stereo unspecified) [Homosalate],81
19,COC(=O)C1=C(C#N)NC(C)=C(C(=O)OC(C)C)C1c1cccc([N+](=O)[O-])c1 (stereo unspecified) [Nilvadipine],121
20,C#C[C@]1(O)CC[C@H]2[C@@H]3CCC4=CCCC[C@@H]4[C@H]3CC[C@@]21C [Lynestrenol],97.6
21,C[C@H](CCC(=O)O)[C@H]1CC[C@H]2[C@@H]3[C@@H](O)C[C@@H]4C[C@H](O)CC[C@]4(C)[C@H]3CC[C@]12C [Urosiol],110
22,O=C(CCCN1CCN(c2ccccn2)CC1)c1ccc(F)cc1 [Azaperone],22
23,CN1CCC(=C2c3ccccc3Sc3ccccc32)CC1 [Pimethixene maleate],83.8
